Results published in the supplement of paper PMC12067230.
This is a noisy data set.

Test: amyloid nucleation score relative to library mode (yeast Sup35 reporter selection) (log enrichment difference); higher = more amyloid nucleation; sequences are the first 22 residues of the Bri2 peptide extended by up to 12 random residues
Settings: random library (experiment): 1;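 active = nucleation score significantly above 0 at FDR 0.05; inactive = not significantly above 0 or absent from output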
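Also: [psi-pin-] Saccharomyces cerevisiae expressing SupN fusions, induced by 100 µM Cu2SO4, selected 7 d at 30 °C without adenine and uracil, scored by deep sequencing of output versus input.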

Sequence | amyloid nucleation score
EASNCFAIRHFENKFAVETLICLYLRYRGPACNI | inactive
EASNCFAIRHFENKFAVETLICLYQARTARVVFH | inactive
EASNCFAIRHFENKFAVETLICLYRELNLRGGQQ | inactive
EASNCFAIRHFENKFAVETLICLYRIKIDFVGTR | 2.73
EASNCFAIRHFENKFAVETLICLYRQRLEVVWQV | inactive
EASNCFAIRHFENKFAVETLICLYS | inactive
EASNCFAIRHFENKFAVETLICLYSGPQGEPGHK | 3.51
EASNCFAIRHFENKFAVETLICLYSRLYNVTIYW | inactive
EASNCFAIRHFENKFAVETLICLYTFNGNGGFDV | inactive
EASNCFAIRHFENKFAVETLICLYVLRAGLLSLQ | inactive
EASNCFAIRHFENKFAVETLICLYVSRYSYGWMV | inactive
EASNCFAIRHFENKFAVETLICLYWNKREKCRGV | inactive
EASNCFAIRHFENKFAVETLICLYY | 2.62
EASNCFAIRHFENKFAVETLICLYYWIQERWHSW | inactive
EASNCFAIRHFENKFAVETLICMA | inactive
EASNCFAIRHFENKFAVETLICMACYSGYLFLWY | inactive
EASNCFAIRHFENKFAVETLICMAFHGV | 6.29
EASNCFAIRHFENKFAVETLICMAGVCHRFLCKS | inactive
EASNCFAIRHFENKFAVETLICMAKCFHLQFELF | inactive
EASNCFAIRHFENKFAVETLICMALESMVTVYRR | 6.86
EASNCFAIRHFENKFAVETLICMALHSPIYWLGA | inactive
EASNCFAIRHFENKFAVETLICMALNSRLRVHRR | inactive
EASNCFAIRHFENKFAVETLICMALVNSSGPLRV | inactive
EASNCFAIRHFENKFAVETLICMARLHQAPSDWS | inactive
EASNCFAIRHFENKFAVETLICMASQSECTFRWA | inactive
EASNCFAIRHFENKFAVETLICMAVSRLWVSRAR | inactive
EASNCFAIRHFENKFAVETLICMAYCRNGSVIKW | inactive

Sequence | amyloid nucleation score
EASNCFAIRHFENKFAVETLICMCASCYLSLHSG | 4.4
EASNCFAIRHFENKFAVETLICMCD | inactive
EASNCFAIRHFENKFAVETLICMCHVVV | inactive
EASNCFAIRHFENKFAVETLICMCKLHREEDFVR | 5.22
EASNCFAIRHFENKFAVETLICMCLRSMPQWGAG | inactive
EASNCFAIRHFENKFAVETLICMCMDFIEVSRMF | inactive
EASNCFAIRHFENKFAVETLICMCNESCM | 6.05
EASNCFAIRHFENKFAVETLICMCPSAQMCRPCD | 7.69
EASNCFAIRHFENKFAVETLICMCRGWLRTTADA | inactive
EASNCFAIRHFENKFAVETLICMCRLM | 8.24
EASNCFAIRHFENKFAVETLICMCRLVKVLMCAQ | 1.29
EASNCFAIRHFENKFAVETLICMCRLYCSWGRTR | inactive
EASNCFAIRHFENKFAVETLICMCS | inactive
EASNCFAIRHFENKFAVETLICMCSGRVRAPATE | 5.35
EASNCFAIRHFENKFAVETLICMCSHRESREH | 8.42
EASNCFAIRHFENKFAVETLICMCSYVYSSFNAS | 0.895
EASNCFAIRHFENKFAVETLICMCVLMYTFAMGW | inactive
EASNCFAIRHFENKFAVETLICMCVSYNASNARF | 7.56
EASNCFAIRHFENKFAVETLICMCWASCGGYL | inactive
EASNCFAIRHFENKFAVETLICMCYG | inactive
EASNCFAIRHFENKFAVETLICMD | inactive
EASNCFAIRHFENKFAVETLICMDAVSKWAVH | inactive
EASNCFAIRHFENKFAVETLICMDEYGSLYRACR | 2.53
EASNCFAIRHFENKFAVETLICMDFGGKTEECRQ | inactive
EASNCFAIRHFENKFAVETLICMDGRWVVGVNGT | 5.24
EASNCFAIRHFENKFAVETLICMDHNWKS | inactive

Same assay, conditions: random library (experiment): 2

Sequence | amyloid nucleation score
EASNCFAIRHFENKFAVETLICLYMAWVSNRCIG | inactive
EASNCFAIRHFENKFAVETLICLYMNSDFLGCRC | 5.4
EASNCFAIRHFENKFAVETLICLYMPHSSHYPYR | 6.28
EASNCFAIRHFENKFAVETLICLYMSGLDLCFMT | inactive
EASNCFAIRHFENKFAVETLICLYQMCLGYFVYW | inactive
EASNCFAIRHFENKFAVETLICLYRCHLRGSRIQ | inactive
EASNCFAIRHFENKFAVETLICLYSLHLRIAFPG | inactive
EASNCFAIRHFENKFAVETLICLYTSYAFNQHSV | inactive
EASNCFAIRHFENKFAVETLICLYVLCTVELYHV | inactive
EASNCFAIRHFENKFAVETLICLYVTHPGFGNWR | inactive
EASNCFAIRHFENKFAVETLICLYWTLGRKLVWL | -0.104
EASNCFAIRHFENKFAVETLICLYWYG | 2.6
EASNCFAIRHFENKFAVETLICMAIEPVCLDMIR | 4.32
EASNCFAIRHFENKFAVETLICMAIYYNSRKLSR | inactive
EASNCFAIRHFENKFAVETLICMAKQAFSYVWGV | inactive
EASNCFAIRHFENKFAVETLICMAVPVCPVCLGR | 4.64
EASNCFAIRHFENKFAVETLICMC | 6.63

Sequence | amyloid nucleation score
EASNCFAIRHFENKFAVETLICMCCATDTILLGL | 7.31
EASNCFAIRHFENKFAVETLICMCGCNYMCMLW | inactive
EASNCFAIRHFENKFAVETLICMCHFDVTCAEVC | inactive
EASNCFAIRHFENKFAVETLICMCLLTASVLSQG | inactive
EASNCFAIRHFENKFAVETLICMCLVIWPVRDDV | -0.489
EASNCFAIRHFENKFAVETLICMCMVFPYVHPHR | 2.22
EASNCFAIRHFENKFAVETLICMCNENLLFESW | 4.01
EASNCFAIRHFENKFAVETLICMCPWWCYGRFNS | 7.21
EASNCFAIRHFENKFAVETLICMCRTCLIRSCCV | inactive
EASNCFAIRHFENKFAVETLICMCSESIL | 3.18
EASNCFAIRHFENKFAVETLICMCVGVLYWTCHP | 2.34
EASNCFAIRHFENKFAVETLICMCY | inactive
EASNCFAIRHFENKFAVETLICMDADPHIMASDN | inactive
EASNCFAIRHFENKFAVETLICMDAYTCVRAMPD | inactive
EASNCFAIRHFENKFAVETLICMDDTFSDSSRAM | inactive
EASNCFAIRHFENKFAVETLICMDK | inactive
EASNCFAIRHFENKFAVETLICMDLLKRLYRTCE | inactive

Same assay, conditions: random library (experiment): 3

Sequence | amyloid nucleation score
EASNCFAIRHFENKFAVETLICLYLRMFFEGSLS | inactive
EASNCFAIRHFENKFAVETLICLYLSAYFEFCWH | inactive
EASNCFAIRHFENKFAVETLICLYMWYA | inactive
EASNCFAIRHFENKFAVETLICLYPKVIVAFAYG | inactive
EASNCFAIRHFENKFAVETLICLYPPWEPGEYLP | 7.04
EASNCFAIRHFENKFAVETLICLYRGLRLVAGGL | inactive
EASNCFAIRHFENKFAVETLICLYSRSLVKCLLG | inactive
EASNCFAIRHFENKFAVETLICLYSVRTIRRIQW | inactive
EASNCFAIRHFENKFAVETLICLYSYAM | inactive
EASNCFAIRHFENKFAVETLICMAHWHGMGISVY | -0.444
EASNCFAIRHFENKFAVETLICMASSGWTGRVLA | inactive
EASNCFAIRHFENKFAVETLICMAVKRSSDRVTK | inactive
EASNCFAIRHFENKFAVETLICMAWGVQGTQLRG | inactive
EASNCFAIRHFENKFAVETLICMCACRCSMILIW | inactive
EASNCFAIRHFENKFAVETLICMCDFWWWYLTLR | 0.372
EASNCFAIRHFENKFAVETLICMCFFDTEYAVR | inactive

Sequence | amyloid nucleation score
EASNCFAIRHFENKFAVETLICMCGSW | 7.14
EASNCFAIRHFENKFAVETLICMCHPQENVSQDH | 8.69
EASNCFAIRHFENKFAVETLICMCKGRLPLSDSV | 5.15
EASNCFAIRHFENKFAVETLICMCKGVEGTNRLT | 4.96
EASNCFAIRHFENKFAVETLICMCLVPSCVMVYR | inactive
EASNCFAIRHFENKFAVETLICMCMRRPILASFL | inactive
EASNCFAIRHFENKFAVETLICMCMSSFRTYWTS | 4.13
EASNCFAIRHFENKFAVETLICMCRMRSHNYSET | 5.11
EASNCFAIRHFENKFAVETLICMCRYWSTGYRG | inactive
EASNCFAIRHFENKFAVETLICMCSD | 7.32
EASNCFAIRHFENKFAVETLICMCVNAREGRPFS | 5.99
EASNCFAIRHFENKFAVETLICMCVYWRAQYGWS | inactive
EASNCFAIRHFENKFAVETLICMCYGWCLVPGSG | inactive
EASNCFAIRHFENKFAVETLICMDADLCTKGGQA | inactive
EASNCFAIRHFENKFAVETLICMDEVAGRTGLPP | inactive
EASNCFAIRHFENKFAVETLICMDLSNTSSVLTV | inactive
